In all, about 46,000 compounds went through this assay and about 60 (0.1%) were called active. Another 3% or so got no clear call; they are omitted. Calls come from the whole dose curve; as a rule, active = well fitted inhibition curve with a large enough effect; inconclusive = small, poorly fitted or top-dose-only effect; inactive = no such curve, though single readings can be large or run the other way. This is one part of the list.

The assay can be described thus: Primary qHTS assay for Inhibitors of ovarian cancer metastasis using an organotypic tumor microenvironment (TME) model.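 For activity change, negative = inhibition: plate controls were DMSO wells for no effect and tomatine positive control wells for full effect.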 Note: nearly all actives have a fitted effect of over 65% in size. The conditions noted are these: SKOV3ip1-GFP adhesion/invasion on 3D omental model, fluorescence; series mostly up to 45.8 µM; activity change, negative = inhibition: at the top concentration. The gist of the method: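 qHTS, 4-pt dose (0.36-46 umol/L); SKOV3ip1-GFP, 1,200 cells/well, no FBS; primary omental fibroblast/mesothelial co-culture 48 h pre-grown; 2 h RT + 16 h 37 C; PBS wash, 4% PFA; GFP count 488/509 nm.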
For orientation: In qHTS, concentration-response curves come from the screen itself.
With `Cc1cccc(-c2nc(C)c(CCNC(=O)C(=O)Nc3ccccc3C#N)s2)c1`, the “activity change, negative = inhibition” value is inactive: 5.39%.

For the molecule `COc1ccc(-n2nnnc2C2CCN(S(=O)(=O)c3ccc(NC(C)=O)cc3)CC2)cc1`, the “activity change, negative = inhibition” value is inactive: 4.5%.

Turning to `CCOc1ccc(CCNC(=O)CN2C(=O)COc3ccc(S(=O)(=O)N4CCCC4)cc32)cc1`, the result was inactive.

On to `Cc1cccc(NC(=O)CSc2nc(-c3ccccc3)cc(=O)[nH]2)c1C`, for which the “activity change, negative = inhibition” value was inactive: 3.03%.

Regarding `Cc1ccc(C(C)C)c(OCC(O)CN2CCN(c3ccccc3F)CC2)c1` (stereo not drawn), the molecule was called inactive.

For `Cc1ccc(NC(=O)CCC(=O)N2Cc3ccccc3Oc3ncccc32)c(C)c1`, the “activity change, negative = inhibition” value was inactive: 10.2%.

With `Cc1ccc(CNC(=O)C(C)n2nc(C)n3c(cc4sccc43)c2=O)cc1` (stereo not drawn), the “activity change, negative = inhibition” value is inactive: 4.4%.

Consider `CCOC(=O)C1CCCN(C(=O)c2ccc3c(c2)sc2nc(-c4ccc(CC)cc4)cn23)C1` (stereo not drawn), for which the “activity change, negative = inhibition” value was inactive: -13.3%.

For `Cc1ccc(S(=O)(=O)N(CC(=O)Nc2ccc(Cl)cc2Cl)c2ccccc2C)cc1`, the “activity change, negative = inhibition” value was inactive: -7.84%.

`COc1ccccc1C(=O)Nc1cccc(C(=O)OCc2cc(=O)n3ccsc3n2)c1`: the “activity change, negative = inhibition” value is inactive: 9.27%.

`COc1ccc(NC(=O)CCc2c(C)nn(-c3ccc(N4CCCCC4)nn3)c2C)cc1Cl`: the “activity change, negative = inhibition” value was inactive: 11.9%.

With `Cc1ccccc1NC(=O)CSc1nc2ccccc2c2nc(CCn3cncc3C)nn12`, the “activity change, negative = inhibition” value was inactive: -13.2%.

As for `N#Cc1c(C(F)(F)F)cc(-c2ccc(F)cc2)nc1SCC(=O)Nc1ccccc1`, the result was inactive.

In the case of `Cc1ccc(Cn2ccnc2SCC(=O)NCc2ccccc2Cl)cc1`, the “activity change, negative = inhibition” value was inactive: -4.29%.

With `CCn1c(C(=O)N2CCC(C(=O)NCCc3ccc(C)cc3)CC2)cc2sccc21`, the “activity change, negative = inhibition” value is inactive: -16.4%.

For the molecule `COC(=O)c1ccc2c(=O)n(CCCCCC(=O)NCCc3ccc(Cl)cc3)c(=O)[nH]c2c1`, the “activity change, negative = inhibition” value is inactive: 6.64%.

Consider `CCOC(=O)c1ccc(N2C(=O)c3n[nH]c(-c4ccco4)c3C2c2cccc(OC)c2)cc1` (stereo not drawn), for which the molecule was classed as inactive.

In the case of `Cc1oc(-c2ccc(C(=O)NCc3cccc(F)c3)cc2)nc1COc1ccccc1`, the “activity change, negative = inhibition” value was inactive: -4.47%.

Turning to `CCc1nc2ccc(C(=O)NCc3cc(OC)ccc3OC)cc2nc1CC`, the “activity change, negative = inhibition” value was inactive: 10.7%.

Consider `CCOc1ccc(N2CC(c3nc4ccccc4n3CCOc3ccccc3OC)CC2=O)cc1` (stereo not drawn), for which the “activity change, negative = inhibition” value is inactive: -9.37%.

Regarding `O=C1CC(c2nc(-c3ccccc3)no2)CN1c1ccccc1` (stereo not drawn), the “activity change, negative = inhibition” value is inactive: 0.478%.

For `COc1cccc2c1cc1c(=O)n(CC(=O)N3CCN(c4ccccc4)CC3)nc(C)n12`, the “activity change, negative = inhibition” value was inactive: 11.9%.

As for `Cc1cccc(NS(=O)(=O)c2ccc3c(c2)CC(C)N3C(=O)C2CCC2)c1C` (stereo not drawn), the “activity change, negative = inhibition” value is inactive: 2.82%.

As to `CCc1ccc(CNc2ccc3c(c2)ncn3C(C)(C)C)cc1`, the result was inactive.

Consider `Cc1ccc(-c2nc3ncccn3c2Nc2ccc3c(c2)OCCO3)cc1`, for which the “activity change, negative = inhibition” value is inactive: 46.5%.

Consider `O=C(CCS(=O)(=O)c1ccc(Br)cc1)Nc1ccc(F)cc1F`, for which the result was inactive.

Turning to `CC(=O)N1CCc2cc(S(=O)(=O)CCC(=O)Nc3ccc(C)cc3Br)ccc21`, the molecule was called inactive.

Turning to `Cc1ccc(Cn2c(C)c3cnn(CC(=O)NCc4ccccc4)c(=O)c3c2C)cc1`, the “activity change, negative = inhibition” value is inactive: -20.7%.

With `CCN(CC)c1ccc(NC(=O)c2cnn(-c3ccccc3)c2-n2cccc2)c(C)c1`, the “activity change, negative = inhibition” value is inactive: -0.328%.

On to `Cc1cc(OC(C)C(=O)Nc2cccc(-c3nc4ccccc4o3)c2)cc(C)c1Cl` (stereo not drawn), for which the molecule was classed as inactive.

Consider `COc1ccc(Cn2c(=O)n(Cc3ccco3)c(=O)c3oc4ccccc4c32)cc1`, for which the “activity change, negative = inhibition” value is inactive: -0.25%.

On to `Cc1cccc2sc(N(CCN(C)C)C(=O)c3ccc4c(c3)OCCO4)nc12`, for which the “activity change, negative = inhibition” value was inactive: -3.65%.

`CCOc1ccc(CCNC(=O)CS(=O)(=O)Cc2nc(-c3ccc(OC)cc3)oc2C)cc1`: the “activity change, negative = inhibition” value is inactive: 8.34%.

`CCC(C(=O)Nc1ccc(C)c(C)c1)n1c(=O)c(C(F)(F)F)nc2ccccc21` (stereo not drawn): the molecule was classed as inactive.

Consider `Cc1ccc(CNC(=O)CCCn2c(=O)c3ccccc3n(CC(=O)Nc3ccc(C)cc3)c2=O)cc1`, for which the molecule was called inactive.

For `Cc1nc2cc(-c3ccccc3)nn2c(C)c1CCC(=O)Nc1ccc(F)cc1F`, the “activity change, negative = inhibition” value was inactive: 2.46%.

Take `COc1ccc(-c2nc(CS(=O)(=O)CC(=O)NCc3ccccc3Br)c(C)o2)cc1`: the “activity change, negative = inhibition” value was inactive: -24.8%.

`COc1cccc(NC(=O)Cn2c(=O)n(CCC(=O)NCCc3ccc(Cl)cc3)c(=O)c3ccccc32)c1`: the result was inactive.

For the molecule `Cc1ccc(CNC(=O)CS(=O)(=O)c2cccc3nsnc23)cc1`, the molecule was classed as inactive.

`CCOC(=O)c1c(NC(=O)COc2ccc(Cl)cc2C)sc2c1CCCCC2`: the “activity change, negative = inhibition” value was inactive: -17.1%.

For `Cc1ccc(C)c(Nc2cc(C(=O)NC3CCCC3)c3ccccc3n2)c1`, the “activity change, negative = inhibition” value is inactive: -3.12%.

Turning to `COc1ccc(NC(=O)CC2C(=O)N(c3ccc(OC)cc3)C(=O)N2CCC2=CCCCC2)cc1` (stereo not drawn), the “activity change, negative = inhibition” value was inactive: -22%.

Regarding `Cc1ccc(CNC(=O)c2cc3c(=O)n(Cc4ccco4)ccc3nc2C)cc1`, the call was inactive.

Take `COc1cc(-c2noc(-c3ccc(NCC4CCCO4)c([N+](=O)[O-])c3)n2)cc(OC)c1OC` (stereo not drawn): the call was inactive.

Consider `COc1ccc(CCNC(=O)Cc2c(C)c3cc4c(C(C)(C)C)coc4c(C)c3oc2=O)cc1`, for which the “activity change, negative = inhibition” value is inactive: -4.32%.

For the molecule `CN(C)C(=O)[C@H](O)[C@H](Cc1ccccc1)NC(=O)c1cc2cc(Cl)ccc2[nH]1`, the “activity change, negative = inhibition” value is inactive: 9.73%.

In the case of `COc1cc(NC(=O)CSc2nc3ncccc3o2)cc(OC)c1`, the “activity change, negative = inhibition” value was inactive: 6.12%.

As to `CCn1cc2nc(SCC(=O)Nc3cc(OC)cc(OC)c3)n(Cc3ccc(Cl)cc3)c(=O)c2n1`, the “activity change, negative = inhibition” value is inactive: 1.77%.
